Values joined by “and” are separate entries in the source; they are usually repeats but may differ in a detail not shown here. Equal entries are not always repeated.
How the values were obtained:
[1] = system: J774 a.1 macrophage cell line; experiment: cells; conditions: Mus musculus, J774.A1, 120 h, MTT, 5 days
Procedure: The IC50 was calculated from the dose response curve as the dose was inhibited the 50% of cell viability. The ratio between IC50 and MIC against M. bovis BCG was used to calculate the selectivity index (SI) of each compound as an estimate of the therapeutic window as shown in the following table.

[2] = Hepatic microsomal stability; format: in vitro ADME; conditions: 100 x Conc. at 30 min/Conc. at 0 min, mice microsomes

Q: Which results are given for `CNCCOc1nn(-c2c(Cl)cc(Cl)cc2Cl)c(C(Cl)Cl)c1[N+](=O)[O-].Cl` [LX079, 2-((5-(Dichloromethyl)-4-nitro-1-(2,4,6-trichlorophenyl)-1H-pyrazol-3-yl)oxy)-N-methylethanaminium chloride]?
A: IC50 [1]: 2 µg/mL; Stability (%) [2]: 23.14% and 23.14 ± 2.01%

Q: For `CNCCOc1nn(-c2c(Cl)cc(C(F)(F)F)cc2Cl)c(C(Cl)Cl)c1[N+](=O)[O-].Cl` [Lx088, 2-((1-(2,6-Dichloro-4-(trifluoromethyl)phenyl)-5-(dichloromethyl)-4-nitro-1H-pyrazol-3-yl)oxy)-N-methylethanaminium chloride], which IC50 [1] is on record?
A: 6 µg/mL

Q: Which IC50 [1] does the source give for `CCNCCOc1nn(-c2c(Cl)cc(Cl)cc2Cl)c(C(Cl)Cl)c1[N+](=O)[O-].Cl` [Lx089, 2-((5-(Dichloromethyl)-4-nitro-1-(2,4,6-trichlorophenyl)-1H-pyrazol-3-yl)oxy)-N-ethylethanaminium chloride] here?
A: 2 µg/mL
